# Source: publication PMC4336329 (PLoS ONE, 2015)
# In all, about 310,000 compounds went through this assay and about 14,000 (4.5%) showed an effect of 50% or more. Effects have a minus sign here. This is one part of the list.
# Target: human ether-à-go-go-related gene (hERG) potassium channel (human, UniProt Q12809)
# Assay: primary screen, population patch clamp on CHO cells stably expressing hERG
# 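Note: peak tail current of the secondary pulse compared with the same well before compound.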
# Chain of human ether-à-go-go-related gene (hERG) potassium channel (Q12809 whole entry, looked up): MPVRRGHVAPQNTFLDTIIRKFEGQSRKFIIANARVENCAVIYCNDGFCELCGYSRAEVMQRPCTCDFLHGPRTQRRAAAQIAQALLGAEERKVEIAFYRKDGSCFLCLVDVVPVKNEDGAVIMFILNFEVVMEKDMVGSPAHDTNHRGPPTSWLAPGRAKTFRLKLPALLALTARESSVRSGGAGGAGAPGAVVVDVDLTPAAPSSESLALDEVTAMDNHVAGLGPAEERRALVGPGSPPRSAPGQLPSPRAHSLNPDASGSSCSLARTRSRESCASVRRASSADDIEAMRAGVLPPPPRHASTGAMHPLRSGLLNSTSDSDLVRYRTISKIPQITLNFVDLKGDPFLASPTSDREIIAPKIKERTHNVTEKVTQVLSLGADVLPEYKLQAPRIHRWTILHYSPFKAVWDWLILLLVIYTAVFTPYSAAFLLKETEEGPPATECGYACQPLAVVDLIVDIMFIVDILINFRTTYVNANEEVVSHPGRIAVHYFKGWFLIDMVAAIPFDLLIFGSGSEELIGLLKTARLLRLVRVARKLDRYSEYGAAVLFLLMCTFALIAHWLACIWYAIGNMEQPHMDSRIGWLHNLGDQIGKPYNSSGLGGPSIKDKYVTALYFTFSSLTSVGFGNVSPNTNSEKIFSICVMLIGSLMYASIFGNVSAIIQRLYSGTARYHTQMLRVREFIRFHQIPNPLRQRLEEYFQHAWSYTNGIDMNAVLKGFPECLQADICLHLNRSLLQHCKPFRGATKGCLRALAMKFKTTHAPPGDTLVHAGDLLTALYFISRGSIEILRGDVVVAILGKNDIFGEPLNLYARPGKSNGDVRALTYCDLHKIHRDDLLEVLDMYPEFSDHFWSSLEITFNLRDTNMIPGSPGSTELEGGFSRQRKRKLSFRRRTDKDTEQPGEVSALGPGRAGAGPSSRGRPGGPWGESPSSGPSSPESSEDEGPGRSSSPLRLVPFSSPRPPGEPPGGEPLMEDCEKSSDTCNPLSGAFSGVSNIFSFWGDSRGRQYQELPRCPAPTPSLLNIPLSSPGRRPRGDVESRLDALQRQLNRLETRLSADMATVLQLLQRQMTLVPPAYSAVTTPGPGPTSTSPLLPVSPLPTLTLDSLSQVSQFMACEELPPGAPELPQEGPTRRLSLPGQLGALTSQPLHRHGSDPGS
row,Compound,"hERG current change (%, negative = inhibition) at 10uM [%]"
1,Cc1nn(C)c(C)c1C1C(C#N)=C(N)OC2=C1C(=O)CCC2 (centres unmarked),-12
2,COc1ccc2nc(SCC(=O)NCC3CCCO3)c(C#N)cc2c1 (centres unmarked),26.8
3,CN1c2ccccc2Oc2ccccc21.[O-][Cl+3]([O-])([O-])[O-],1.92
4,O=C(O)c1ccccc1S(=O)(=O)c1ccccc1CO,10.3
5,CCCNC(=O)CN1C(=O)NC(Cc2c[nH]c3ccccc23)C1=O (centres unmarked),12.9
6,CCOc1cc(C=O)cc(Cl)c1OCC(N)=O,13.9
7,COCc1cc(C)n(CC(=O)Nc2cccc(C)c2)c(=O)c1C#N,-1.59
8,O=c1ccc2c([nH]1)CCCCCCCCCC2,5.75
9,COc1ccc(C(CNC(=O)c2oc3cc(Br)ccc3c2C)N2CCCCC2)cc1 (centres unmarked),-9.05
10,O=C(COC(=O)c1ccc(O)cc1)Nc1ccc(N2CCCCC2)cc1,-4
11,CNC(=O)c1c(NC(=O)c2cccc(N3C(=O)CCC3=O)c2)sc2c1CCCC2,5.72
12,COc1ccc(CC(=O)Nc2cc(S(=O)(=O)N3CCOCC3)ccc2N2CCOCC2)cc1,0.344
13,O=C(NCc1ccccc1)N(Cc1nc2ccccc2c(=O)[nH]1)C1CCCC1,-2.34
14,C=CCC(NCc1ccco1)c1ccc(OC)c(OC)c1.Cl (centres unmarked),11.8
15,O=C1NC(c2cc3ccccc3nc2Cl)Nc2ccccc21 (centres unmarked),-5.63
16,COc1cccc(COC(=O)C2CCN(C(=O)c3ccccc3C)CC2)c1OC,9.21
17,CCOc1ccc(N(CC(=O)NC2CCCC2)C(=O)c2ccc(C)s2)cc1,-33.6
18,C#CCn1c(=NC(=O)c2ccc(S(=O)(=O)N3CCc4ccccc4C3)cc2)sc2cc(S(N)(=O)=O)ccc21,8.51
19,COc1cc2cc(Oc3ccc4ccc(=O)oc4c3)c(=O)oc2cc1OC1OC(COC(=O)CC(C)(O)CC(=O)O)C(O)C(O)C1O (centres unmarked),23.2
20,CCN(CC)S(=O)(=O)c1ccc2c(c1)c(=O)c(C(=O)NCc1ccc3c(c1)OCO3)cn2C,-1.08
21,Cc1nn(C)cc1CN(C)C(=O)c1nn2c(c1Cl)NC(c1cccs1)CC2C(F)(F)F (centres unmarked),-17.4
22,C/C(N)=C(/C#N)C(=O)CSc1nnc(COc2cc(C)ccc2C)o1,17.1

row,Compound,"hERG current change (%, negative = inhibition) at 10uM [%]"
1,CCCCOc1ccc(C(=O)OC2CC(C)N(C)CC2C)cc1 (centres unmarked),-25.4
2,O=[N+]([O-])c1nn(-c2ccc3c(c2)OCCO3)n(O)c1=NC1CCCC1,19.5
3,CCOC(=O)c1cc(-c2nnc(SCC(=O)Nc3ccc(F)cc3)o2)c(C)nc1C,7.9
4,C#CC[N+](C)(C)CCCCCCCCC.[Br-],-54.9
5,O=C(Oc1cccc(OC(=O)c2ccco2)c1)c1ccco1,23.7
6,CCC(C)[C@@H](C(=O)Nc1ccc(OC)c(OC)c1)N1Cc2ccccc2C1=O (some centres unmarked),-9.42
7,CC(C)NCC(=O)NC12CC3CC(CC(C3)C1)C2.Cl,4.75
8,Cc1nnc(NC(=O)CSc2nnc(Cc3ccccc3)n2Cc2ccccc2)s1,0.574
9,O=C(CCCCCn1c(=O)[nH]c2ccccc2c1=O)NCCCN1CCN(c2ccccc2F)CC1,-79.2
10,CSc1cc(-c2ccc(Cl)cc2)n(Cc2ccccc2)c(=O)c1C#N,18
11,O=[N+]([O-])c1cccc(N2Cc3ccccc3C2)c1,-11.6
12,Cl.O=C(NNC(=O)c1cccc(C(F)(F)F)c1)c1ccncc1,14
13,CCCC(C(=O)NC1CCCC1)N(Cc1cccs1)C(=O)c1snc(C(N)=O)c1N (centres unmarked),-35.6
14,CCOC(=O)N1CCN(c2nc3ccccc3nc2C(C#N)C(=O)NCCc2ccccc2)CC1 (centres unmarked),7.98
15,CN(C)C=O.N#Cc1ccc(Cl)cc1NC(=O)CSc1nc2nc(-c3cccs3)cc(C(F)(F)F)c2c(=O)[nH]1,22.9
16,O=C(c1ccc(N2CCN(C(=O)c3cccc(F)c3)CC2)cc1)c1cccc(F)c1,-12.5
17,O=C(CCC1CCCNC1)c1ccccc1 (centres unmarked),15
18,Cc1cc(SCC(=O)OCC(=O)NCC2CCCO2)c(C)cc1Br (centres unmarked),55.5
19,CCN(CC)S(=O)(=O)c1cccc(C(=O)NC(Cc2c[nH]c3ccccc23)c2nnc3n2CCCCC3)c1 (centres unmarked),-7.83
20,CC(C)NC(=O)CC(c1ccccc1)c1cc(Br)ccc1O (centres unmarked),-7.86
21,O=C(Oc1ccccc1C(=O)Nc1ccccc1)c1ccccc1Br,6.15
22,COCCN(CCOC)c1nc(S(=O)(=O)c2ccc(C)cc2)c(Cl)s1,-27.5

row,Compound,"hERG current change (%, negative = inhibition) at 10uM [%]"
1,O=C(NCC(=O)N1CCCC1)c1ccc(Br)o1,22.1
2,Cc1cc(C)c(OCC(=O)Nc2nc3ccccc3[nH]2)c(C)c1,10.7
3,O=C(CN(c1cccc([N+](=O)[O-])c1)S(=O)(=O)c1ccccc1)NCc1cccnc1,-42.2
4,O=C(CSc1ccccc1)Nc1ccc2c(c1)C(=O)NC2=O,-19.9
5,O=[N+]([O-])c1ccc(Cl)cc1Sc1ccccn1,0.135
6,Cc1cc(OC(C)C(=O)NCCCN2CCCC2=O)c2c(C)c(C)c(=O)oc2c1 (centres unmarked),-11.4
7,Cc1ccc(-c2[nH]ncc2/C=C(\C#N)C(=O)NC2CCCCC2)cc1,0.6
8,Cc1ccc(SCCCn2cncn2)cc1,-2.39
9,O=C(NCC(=O)N1CCCCC1)c1ccc2ccccc2c1,17.5
10,Cc1oc2cc3oc(=O)c(CCC(=O)NCCCn4ccnc4)c(C)c3cc2c1C,-41.7
11,O=C(CCN1C(=O)c2ccccc2C1=O)Nc1ccc(S(=O)(=O)NC2=NCCCCC2)cc1,-0.452
12,O=C(Cc1ccccc1)NCC(=O)Nc1cccc(Cl)c1,15.6
13,N#CC1(NC(=O)COC(=O)c2ccc(-c3ccc(O)cc3)cc2)CCCCC1,7.22
14,O=C(CSc1ccccc1Cl)N1CCOCC1,4.34
15,COc1ccc(S(=O)(=O)N2CCOC2CNC(=O)C(=O)NCc2ccccn2)cc1C (centres unmarked),11.6
16,COc1ccc(CNC(=O)C/C(C)=N/NC(=O)c2ccc(OC)cc2OC)cc1,-10.5
17,O=C(NCCc1ccccc1)C1CCCN1C(=O)Nc1ccc(Cl)cc1 (centres unmarked),-9.01
18,O=CN1Cc2ccccc2-c2ccccc2C1,17.1
19,COc1cc(C=O)ccc1Oc1nc(Nc2ccc(F)cc2F)nc(N2CCOCC2)n1,3.49
20,O=C(N/N=C/c1cccc2ccccc12)c1cc(C2CC2)[nH]n1,17.3
21,CC(C)CC(CC(C)C)=NNC(=O)c1ccc2c(c1)OCO2,14.7
22,CC(C)(C)C(=O)Nc1ccc(-c2cn3ccsc3n2)cc1,6.38

row,Compound,"hERG current change (%, negative = inhibition) at 10uM [%]"
1,Cc1nc2c3ccccc3n(CCN3CCCCC3)c2s1.Cl,-28.9
2,Cc1ccc(C(=O)N/N=C\c2ccc(OC(=O)c3cccs3)cc2)cn1,18.9
3,O=C(OCC(=O)N1CCN(S(=O)(=O)c2ccc(Cl)cc2)CC1)c1cccc(OC(F)F)c1,-42.6
4,Cn1nnc(NC(=O)c2ccccc2)n1,-4.23
5,Cc1ccsc1C(=O)OCC(=O)Nc1cccc(F)c1,-1.53
6,O=C(Nc1cccc2ccccc12)/C(=C\c1cccc([N+](=O)[O-])c1)NC(=O)c1cccs1,-70.1
7,COc1ccc(-c2cc(C(=O)Nc3ccc4c(c3)OCO4)no2)cc1OC,-35
8,CCn1c(=O)n(-c2ccc(Cl)cc2)c(=O)c2c3c(sc21)COC(C)(C)C3,15.6
9,O=C(CN1C(=O)c2ccccc2C1=O)Nc1ccc(N2CCOCC2)cc1,-0.211
10,CC(=O)C[C@H]1c2cc(C(F)(F)F)ccc2S(=O)(=O)N1c1ccc(N(C)C)cc1,-23.7
11,O=C(COC(=O)c1ccc(Br)cc1)Nc1cccnc1Cl,-3.51
12,CC(=O)c1ccc(OCCCCOc2ccc(C(C)=O)cc2)cc1,21.4
13,CCN1CCN(c2nc3c(c(=O)[nH]c(=O)n3C)n2Cc2ccccc2)CC1,-27.7
14,O=C(CSc1nc2ccccc2c(=O)n1-c1ccc(SC(F)F)cc1)Nc1ccc(N2CCOCC2)cc1,18.4
15,O=C1NC(=O)/C(=C/c2cccc([N+](=O)[O-])c2)N1,19.9
16,CC(C)C(=O)N1CCN(c2ccccc2NC(=O)c2cccc(Cl)c2)CC1,-69.6
17,Nc1nnc(SCC(=O)Nc2ccc(F)c(Cl)c2)n1-c1ccccc1,-70.7
18,CCN1CCN(c2c(C=O)c(Cl)nc3ccc(OC)cc23)CC1,-54.5
19,CC(C)(C)C(=O)NC(=S)Nc1sc2c(c1C(N)=O)CCC2,13.9
20,COc1ccc(N(CC(=O)N2CCN(c3ccc(F)cc3)CC2)S(=O)(=O)c2c(C)n[nH]c2C)cc1,-69.4
